B1: Caulobacter ParB omega fusion; a variant is named by its letters at X, in order, B8GW30 (parent)
chain: MESVVVGEPGMSEGRRGLGRGLSALLGEVDAAPAQAPGEQLGGSREAPIEILQRNPDQPRRTFREEDLEDLSNSIREKGVLQPILVRPSPDTAGEYQIVAGERAWRAAQRAGLKTVPIMVRELDDLAVLEIGIIENVQRADLNVLEEALSYKVLMEKFERTQENIAQTIGKSXSHVANXMRLLXLPDEVQSYLVSGELTAXHARAIAAAADPVALAKQIIEGGLSVRETEALARKAPNLSAGKSKGGRPPRVKDTDTQALESDLSSVLGLDVSIDHRGSTGTLTITYATLEQLDDLCNRLTRGI

Whole data set: some 81,000 sequences, median “one-hybrid fitness for binding parS DNA” near -0.17, cut for the highest 2% near 0.51. This is one part of the list.

The variants in this assay derive from B1. The experiment in a line: one-hybrid fitness for binding parS DNA (scaled: cognate 1, non-cognate 0); higher = stronger binding. To be noted: with parS DNA site. In short, it runs like this:
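Selection: bacterial one-hybrid in E. coli USO, HIS3 reporter with the site 19 bp from the promoter, 48 hours at 37°C on M9-minus-histidine plus 0.1 mM IPTG and 5 mM 3-AT. Libraries were Caulobacter ParB with four randomised specificity codons, sequenced on Illumina before and after selection. Fitness is the rescaled log change in variant-to-wild-type read ratio, anchored to the cognate and non-cognate sites.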
Regarding PCSI, the “one-hybrid fitness for binding parS DNA” value is no more than 0.2.

Turning to VHYL, the “one-hybrid fitness for binding parS DNA” value was no more than 0.2.

YPWS: the “one-hybrid fitness for binding parS DNA” value was no more than 0.2.

On to GFQK, for which the “one-hybrid fitness for binding parS DNA” value was no more than 0.2.

For the variant KTGG, the “one-hybrid fitness for binding parS DNA” value is no more than 0.2.

On to STQL, for which the “one-hybrid fitness for binding parS DNA” value was no more than 0.2.

With PNMR, the “one-hybrid fitness for binding parS DNA” value is no more than 0.2.

Take LYFC: the “one-hybrid fitness for binding parS DNA” value is no more than 0.2.

In the case of KGKC, the “one-hybrid fitness for binding parS DNA” value was no more than 0.2.

In the case of YYAC, the “one-hybrid fitness for binding parS DNA” value was no more than 0.2.

In the case of ENAC, the “one-hybrid fitness for binding parS DNA” value was no more than 0.2.

Regarding SHNY, the “one-hybrid fitness for binding parS DNA” value is no more than 0.2.

For the variant LSWW, the “one-hybrid fitness for binding parS DNA” value is no more than 0.2.

On to PADK, for which the “one-hybrid fitness for binding parS DNA” value is no more than 0.2.

On to LLHA, for which the “one-hybrid fitness for binding parS DNA” value is no more than 0.2.

As for MAHT, the “one-hybrid fitness for binding parS DNA” value is no more than 0.2.

As to DIHI, the “one-hybrid fitness for binding parS DNA” value was no more than 0.2.

On to RWYG, for which the “one-hybrid fitness for binding parS DNA” value was 0.714.

On to QFAC, for which the “one-hybrid fitness for binding parS DNA” value was no more than 0.2.

Regarding LYKD, the “one-hybrid fitness for binding parS DNA” value is no more than 0.2.

Take WELS: the “one-hybrid fitness for binding parS DNA” value was no more than 0.2.

Take CPVT: the “one-hybrid fitness for binding parS DNA” value is no more than 0.2.

For RERV, the “one-hybrid fitness for binding parS DNA” value was no more than 0.2.

Turning to NDAV, the “one-hybrid fitness for binding parS DNA” value is no more than 0.2.

MQCC: the “one-hybrid fitness for binding parS DNA” value is no more than 0.2.

As for ALCN, the “one-hybrid fitness for binding parS DNA” value was no more than 0.2.

Regarding CSQC, the “one-hybrid fitness for binding parS DNA” value was no more than 0.2.

For the variant FSAG, the “one-hybrid fitness for binding parS DNA” value was no more than 0.2.

For the variant IYRF, the “one-hybrid fitness for binding parS DNA” value was no more than 0.2.

Consider IWRK, for which the “one-hybrid fitness for binding parS DNA” value was no more than 0.2.

On to TNIL, for which the “one-hybrid fitness for binding parS DNA” value is no more than 0.2.

Consider YRAN, for which the “one-hybrid fitness for binding parS DNA” value is no more than 0.2.

As to NHRI, the “one-hybrid fitness for binding parS DNA” value is no more than 0.2.

Turning to YYYR, the “one-hybrid fitness for binding parS DNA” value was no more than 0.2.

As for QRYH, the “one-hybrid fitness for binding parS DNA” value is no more than 0.2.

Regarding IARW, the “one-hybrid fitness for binding parS DNA” value is no more than 0.2.

As to VTWI, the “one-hybrid fitness for binding parS DNA” value is no more than 0.2.

In the case of NSLH, the “one-hybrid fitness for binding parS DNA” value was no more than 0.2.

In the case of QPCY, the “one-hybrid fitness for binding parS DNA” value was no more than 0.2.

For the variant RYSN, the “one-hybrid fitness for binding parS DNA” value stood at 0.384.

As for TSIV, the “one-hybrid fitness for binding parS DNA” value is no more than 0.2.

For LYST, the “one-hybrid fitness for binding parS DNA” value was no more than 0.2.

As to QANK, the “one-hybrid fitness for binding parS DNA” value is no more than 0.2.

On to RRFK, for which the “one-hybrid fitness for binding parS DNA” value is no more than 0.2.

Turning to FCRS, the “one-hybrid fitness for binding parS DNA” value was no more than 0.2.

On to GRVI, for which the “one-hybrid fitness for binding parS DNA” value is no more than 0.2.

As to SYKK, the “one-hybrid fitness for binding parS DNA” value was no more than 0.2.

Regarding QAMW, the “one-hybrid fitness for binding parS DNA” value is no more than 0.2.

With SMQM, the “one-hybrid fitness for binding parS DNA” value is no more than 0.2.

Turning to RCRF, the “one-hybrid fitness for binding parS DNA” value amounted to 0.427.

Take VNKE: the “one-hybrid fitness for binding parS DNA” value is no more than 0.2.

Turning to MNLI, the “one-hybrid fitness for binding parS DNA” value was no more than 0.2.

For the variant LAPL, the “one-hybrid fitness for binding parS DNA” value is no more than 0.2.

In the case of GAFV, the “one-hybrid fitness for binding parS DNA” value is no more than 0.2.

Turning to THRG, the “one-hybrid fitness for binding parS DNA” value was no more than 0.2.

With SMIR, the “one-hybrid fitness for binding parS DNA” value was no more than 0.2.

Take PLSW: the “one-hybrid fitness for binding parS DNA” value was no more than 0.2.

On to LSTY, for which the “one-hybrid fitness for binding parS DNA” value was no more than 0.2.

For the variant FAWS, the “one-hybrid fitness for binding parS DNA” value was no more than 0.2.

On to CRVR, for which the “one-hybrid fitness for binding parS DNA” value was no more than 0.2.

For TLVK, the “one-hybrid fitness for binding parS DNA” value is no more than 0.2.

In the case of TSMF, the “one-hybrid fitness for binding parS DNA” value was no more than 0.2.

On to MFVG, for which the “one-hybrid fitness for binding parS DNA” value was no more than 0.2.

With PYLT, the “one-hybrid fitness for binding parS DNA” value was no more than 0.2.

Turning to FSDT, the “one-hybrid fitness for binding parS DNA” value is no more than 0.2.

On to LLFI, for which the “one-hybrid fitness for binding parS DNA” value was no more than 0.2.

Turning to WSTW, the “one-hybrid fitness for binding parS DNA” value is no more than 0.2.

Regarding RCGH, the “one-hybrid fitness for binding parS DNA” value amounted to 0.217.

Consider VQKA, for which the “one-hybrid fitness for binding parS DNA” value is no more than 0.2.

Take VAAS: the “one-hybrid fitness for binding parS DNA” value was no more than 0.2.

In the case of CFLE, the “one-hybrid fitness for binding parS DNA” value is no more than 0.2.

For NGAG, the “one-hybrid fitness for binding parS DNA” value was no more than 0.2.

For LIWG, the “one-hybrid fitness for binding parS DNA” value is no more than 0.2.

On to TWLQ, for which the “one-hybrid fitness for binding parS DNA” value was no more than 0.2.

With HRSY, the “one-hybrid fitness for binding parS DNA” value was no more than 0.2.

On to DVPV, for which the “one-hybrid fitness for binding parS DNA” value was no more than 0.2.

QDQM: the “one-hybrid fitness for binding parS DNA” value is no more than 0.2.

Turning to YVKG, the “one-hybrid fitness for binding parS DNA” value was no more than 0.2.

Consider CQSV, for which the “one-hybrid fitness for binding parS DNA” value was no more than 0.2.

With WRAS, the “one-hybrid fitness for binding parS DNA” value was no more than 0.2.

CQYG: the “one-hybrid fitness for binding parS DNA” value was no more than 0.2.

Turning to LPDD, the “one-hybrid fitness for binding parS DNA” value was no more than 0.2.

For the variant RDTY, the “one-hybrid fitness for binding parS DNA” value is no more than 0.2.

Regarding TWNN, the “one-hybrid fitness for binding parS DNA” value is no more than 0.2.

Consider VVST, for which the “one-hybrid fitness for binding parS DNA” value is no more than 0.2.

Consider QCYH, for which the “one-hybrid fitness for binding parS DNA” value is no more than 0.2.

Regarding QSNN, the “one-hybrid fitness for binding parS DNA” value is no more than 0.2.

Turning to SCAL, the “one-hybrid fitness for binding parS DNA” value is no more than 0.2.

MVFD: the “one-hybrid fitness for binding parS DNA” value was no more than 0.2.

Turning to MRRY, the “one-hybrid fitness for binding parS DNA” value is no more than 0.2.

Turning to WDNG, the “one-hybrid fitness for binding parS DNA” value was no more than 0.2.

Turning to RVQE, the “one-hybrid fitness for binding parS DNA” value is no more than 0.2.

On to HLFA, for which the “one-hybrid fitness for binding parS DNA” value was no more than 0.2.

As to NLGC, the “one-hybrid fitness for binding parS DNA” value is no more than 0.2.

Turning to QTIS, the “one-hybrid fitness for binding parS DNA” value was no more than 0.2.

QYEE: the “one-hybrid fitness for binding parS DNA” value is no more than 0.2.

With AEVD, the “one-hybrid fitness for binding parS DNA” value was no more than 0.2.

Values taken from a collection of fitness landscapes (doi:10.1016/j.celrep.2020.107928).
